From the supplement of paper PMC12632987
The full ranking holds about 4,500 sequences; the median of “median log2 fold change of GCK-ALFA target abundance (FLAG IP / Myc IP barcode read proportion)” is about 0.078, and the lowest 2% start at about -0.6. Some of the results follow.

B1: GBRAP_64_6489 (protein)
chain: MEEIEESLEELLKLVEELLEAVKDLSEELQKKVEEVKRLVEEAKTASLEERLDLTVEAAKLLNEILKNPELTEEQKELAGLALDKASELAWLLFEAEEEE
B2: GBRAP_52_6348 (protein)
chain: MEERLRRLAEELVELVLAGRLEEARALAREIVATLSDEELRGLFRVLAEMAKEADPERAEAILEAAEILADEMIAAGRDEYEASGYLADVGKAVYENLQK
B3: GBRAP_9_7161 (protein)
chain: MKELIEKMKEIVKEAFEEIKKVVPEEKKPIVDKEKAEVEKKLEELAKDPSITKEEATEKTIELLKEATAVIKAKVTPEIAKMVEAIVLTAELEIEEEAEK
B4: GBRAP_11_2732 (protein)
chain: KKEKLEEIRELAERLAELLQRLIEEGPEDEELRREAEEQLRKLEELVKEYGDEDLKKLVEIIREEWERAQEDPETAVEHLRNALAAARVLAGQVLLEIEE
B5: GBRAP_26_5500 (protein)
chain: MEAAIDAARERLHAAADALLPPEKAALFKAEVDTAVLELEEELEKNKDNLEAQYAAIDKFAAELAEALDALGVPADVAAALRAEVKAVAAELKAALEKSR
B6: GBRAP_184_5335 (protein)
chain: STLEVTIENKSKEEILKEAKKAAKEAAKAGKNLLIHLFLEGKSSEEIAEIVEEIGKIAKEEGIKNLTIGIDQAVDEETADKLIEIADKYGINLTLALEDE
B7: GBRAP_26_5476 (protein)
chain: SEEIVRKALAEIAALLAELPDPELAAAALAEATTIIVEAAEEMEKNKDNPEKLKKIVEDAVKELREELERLGVPEEVRERVVKAAREGLEELAKEILKKS
B8: GBRAP_39_5706 (protein)
chain: SKEEEAEDTFSYYEARGAKDAVERGWDDEEVVKKTEELAEEIIKRYPELKPLVEEALKLAKEKGIVAVLALYGVLLDAKEGLPVEELREKLELLIAYLKS
B9: GBRAP_128_3405 (protein)
chain: MDEAKVAKAKALIDAILEADKEEAKKLAAELEKLLLEADVETVAAVVEYIETKADQFNEEQLAILMDAFHNVAKNSDPEKAELAVEAIGILGEKLYELEE
B10: GBRAP_11_2767 (protein)
chain: KKEKLKEAKKLAEELAKLLKELIEKGVDDEELLKEAEKKLKELEKLVKEYGDEDMKKLAKIMKELWEKLKKDPENAEKYAKELLAAAEVLAGQFELEIDE
B11: GBRAP_9_7179 (protein)
chain: EEEAKKKILEVFREEGEEAIELAPEEKRPLVEELIEKALKKLEEAAKDPSKSLEELLELLEKLADEIVEELRKHLPEEVYRRIEAELGTAILEAEEIIEE
B12: GBRAP_11_2861 (protein)
chain: KKEKLEEMKKLAEELIKLLEKLIEEGVTNEELLKEAEKLLEELLKLAKELGDKSLVKLAEIALEELEKAKENPETALEHVQNALAAMRVLLGQILLLIDE
B13: GBRAP_122_2957 (protein)
chain: SKEELIEKMVKETLERAEKGDPAQALLDALKEAAEKLDAESLIELAERLKEEMLKRGWEADALRAYAAAAVWLHENKPELEEAADHLLDLALELEDRLEE
B14: GBRAP_184_5133 (protein)
chain: TVLHRAVRATTAEALIAAARAAVDEAAAAGAELVLSVFAEGLSVEEKIAVIRELGALKAAHPQIKAIIVELDEVSEEDMDRLIAAADEAGVKLVIAIPDE
B15: GBRAP_160_4570 (protein)
chain: SEEHKELIKEIEEITEEAIEFIKGENYENRLNIVKVAAGEILLLLDENPEVSEETLEKADEIFDELIEEIESNPELTEEEIQKLLREAVEEIKKLIEKES
B16: GBRAP_128_3358 (protein)
chain: LDEEKLKEIKELWEQMVNSDVETTYELAKELFKKMSKMSKEEKEAAVEIALEYLPKLTAEKLEAVADAIREMWPLFDPFTKELMAELEVDALNLAEEKEE
B17: GBRAP_9_7172 (protein)
chain: LKAAAAAAIAELREARDFILEIAPEAAAGAVDAAFDALIAALEAARADPTVTPEQFEATLAAGFAAIRAAAAAHLSPEVAAAVETEMLTVRDIADEKLDE
B18: GBRAP_52_6203 (protein)
chain: MRERMRRLAEEIVELVKAGRREEARALAREVAETLDDEELRLLIEEFARLAREARPEDFDAVFEAAEIFEDVLLELGRDEALADDVLNEVAAALYERELA
B19: GBRAP_160_4477 (protein)
chain: MEKVKKTVEDLVKDVLETLEENADLPVKDLLLAVQVTVGSNLMEAVENGTLSDEQEDIVIKAMDEIEELMKESKDMSVEEAKERAKEIIEKMAKEILEAA
B20: GBRAP_39_5707 (protein)
chain: EEEEEAEEAFSYYEARGAKYQVERGLTLEEARAEARRLAEELVARHPELAELVRRALELAEAAGDLAILALLGALTAAEEGLPLEELRERLELLIRHLES
B21: GBRAP_43_5755 (protein)
chain: MEELLEGFLELLKLLTEDPSVTEEQLLAYLKEGFDMLADEGIVLEKEFLAAVEAASKRLSKEQLEEALAHAEKIAKENPKVKATFEKAAKILKAAIAKKK
B22: GBRAP_106_2559 (protein)
chain: ARREKVEAILAETEARLRAELARTEAIIAANADRLTPEEKRAMRNYTVKASFAEGLRRLQKEVGLSDADARAILDKVLAHIDAPLEEQIAVFREAVLAVV
B23: GBRAP_106_2555 (protein)
chain: SEEEKFEKLIKESREEAEKEIADTRAWLAARRDQLTPEEIRAIETYTKKYLVAKILHKAIEAGFITKEEAEEILKEALSKTDFTPEEAVKFTLEKIKELY
B24: GBRAP_52_5913 (protein)
chain: MEEEIREFVEKLIELIKEGKEEEARELAKKFVEEKNEEEIRIAIEVLVELVLESPEEELPYWEKAAELIAEALEEAGKDEVLADDLLARTAAAIYERLQK
B25: GBRAP_52_6027 (protein)
chain: MREEIRAVVEEALALVKAGDEAAAAALLEALVASLNEEEVRLLTEVLAELARRARPEDHEAVWRLTELAAAAMEKAGKDEVLADDLEARVAAALYEAELR
B26: GBRAP_184_5084 (protein)
chain: KVFEAEVEAETEEELFAKVDAVLDEAAKQKADLVVLVKAKGLDTETAIAIINKLGAAKKAGKVPNVTVGFDEEFTEEEIDKIVAAADAAGVKVVLPIKDE
B27: GBRAP_14_3776 (protein)
chain: MDKAIAIIKETAAEIVALLAEINPAKAAAFKAAVDAVTAATIAEIKATGDAIAAAEAGQAALVAAVRAILADEAPEVRARAEAVVRVEWGQAILELDELE
B28: GBRAP_184_5052 (protein)
chain: MTYERVIEAKNKEELKKKLEELKEEVKDHKGNLIVTVKIPKFTKEMIEILMEKMKEIKDEGYAKSITVGLDGDMSEEEVDLALELADKAGVKVVLALDEE
B29: GBRAP_52_6300 (protein)
chain: MREEAERLAERLIELAKAGRLDEARALLREIVATKSKEFLRLLAEVLAERAREADEETQDVIFEVMEMLADELLEGGYDEAFAGDLLALVARAMYEAELK

biological target: GABARAP, O95166; assay: median log2 fold change of GCK-ALFA target abundance (FLAG IP / Myc IP barcode read proportion) (log2 ratio); each designed protein is fused to an ALFA-tag nanobody in HEK293 cells to bring the named protein to FLAG-tagged glucokinase (GCK); Myc marks an untargeted standard; higher = target protein stabilised (more abundant); settings: target protein: 3xFLAG-MCP-GCK-ALFA reporter; HEK293 landing pad (RPLP)
Sequence (O95166 whole entry, the tested form may be a part): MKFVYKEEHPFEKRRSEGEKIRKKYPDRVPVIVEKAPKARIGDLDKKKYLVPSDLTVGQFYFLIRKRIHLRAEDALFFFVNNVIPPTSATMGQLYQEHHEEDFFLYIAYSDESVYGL
Summary of the method: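 The readout is target abundance, the per-binder median log2 ratio of FLAG to Myc barcode read proportions. It came from HEK293 landing-pad cells carrying a recombined ALFA-nanobody-fused binder library, induced with 2 μg mL^−1 doxycycline and transfected with a plasmid for a FLAG-tagged target and a Myc-tagged standard. After 48 h, lysates were immunoprecipitated with anti-FLAG and anti-Myc, and circular RNA barcodes were reverse transcribed, amplified and sequenced. Each barcode needed a proportion of at least 10^−7 in both replicates and each binder at least 3 barcodes per replicate, a pseudocount of 10^−6 was added, and the replicates were pooled.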

Row | Binder | median log2 fold change
1 | B1 | 0.0238
2 | B2 | 0.199
3 | B3 | 0.0978
4 | B4 | 0.303
5 | B5 | 0.269
6 | B6 | 0.137
7 | B7 | 0.114
8 | B8 | 0.184
9 | B9 | 0.171
10 | B10 | 0.328
11 | B11 | 0.191
12 | B12 | 0.292
13 | B13 | -0.0878
14 | B14 | 0.104
15 | B15 | -0.128
16 | B16 | 0.0777
17 | B17 | -0.00921
18 | B18 | -0.0514
19 | B19 | -0.0383
20 | B20 | 0.333
21 | B21 | 0.0117
22 | B22 | 0.075
23 | B23 | -0.507
24 | B24 | 0.2
25 | B25 | 0.0078
26 | B26 | -0.0753
27 | B27 | 0.0676
28 | B28 | 0.22
29 | B29 | -0.146
